# From the supplement of paper PMC11417369
# ± gives the standard deviation of the averaged measurements. The list shows a part of the results.
# Tested on: PfAP2-I AP2 domain 3 (GST-tagged)
# Experiment: gcPBM binding intensity (ln(normalized median fluorescence intensity)); higher = stronger DNA binding
# How it was run: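 Using an Agilent 4 × 180k array, primer-extended double-stranded 36-bp intergenic genomic probes and negative controls were exposed for 1 h to GST-fused P. falciparum DNA-binding domains expressed in E. coli. Binding was carried out in 1× PBS with 1% milk, 0.2 mg/ml BSA, 0.5% salmon testes DNA and 0.03% Triton X-100, and protein was detected with Alexa488 anti-GST antibody and a 488 nm scan. Binding intensity is the highest Masliner-normalised natural-log median intensity across replicate spots of either probe orientation.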
row,Sequence,gcPBM binding intensity (ln)
1,GAAAGGATATATATATATATATATATAATACATTTC [GTGCAC_negctrl_site677],8.16 ± 0.49
2,TATATATACATACATACACACATATATATATATATT [CACACA_site4110],7.96 ± 0.35
3,ACATATAATATATAATGTACAAAATTGTTAACAATA [XGTACX_site3798],7.79 ± 0.35
4,AAAAAAAAAAAAAAAGTGCACAGTCGTTTTAAAAAA [GTGCAC_site9848],10.34 ± 0.092
5,TCTATATCTTTCAACACACAAATTTTTTTTTCCATC [CACACA_site4238],7.74 ± 0.64
6,AAGATAATATTTTCTTGTACGCATGCACATACAAAT [XGTACX_site7181],8.14 ± 0.52
7,CTTTTCTCCCTCCATAGTACAATTATAAAAATATAT [XGTACX_site3090],8.15 ± 0.2
8,ATGCAAAGTTTATAAAGTACATAAGTCAAAATAAAA [XGTACX_site1441],7.97 ± 0.68
9,ATTAACTATCATAACACACACAGTAGACATATTTTT [CACACA_site1822],7.83 ± 0.56
10,AAATCATTTAAGAACACACAAATATTTCCATTAAAT [CACACA_site6808],7.74 ± 0.57
11,CTCAATGTTTGCGATACATGCAAAAATTTTTAGAAT [TGCATGCA_site165],7.71 ± 0.5
12,TACATTTCATTGTAATCATAAAAAATAAAGAAAAAA [XGTACX_negctrl_site542],7.58 ± 0.61
13,TAGAAGCATGGACACACACACATACATACCCATACA [CACACA_site4916],8.05 ± 0.57
14,TTATTTTTCCGGAATAGTACATAGACGCAGATATAA [XGTACX_site6356],8.16 ± 0.33
15,CTTAGGTTAAAAGTGTGTACATAAAAACATATATAA [XGTACX_site2213],8.38 ± 0.26
16,TACTATTATAAATATGTGCACTTCAATAATATACTA,10.4 ± 0.11
17,TAAATAAATTATTTTCGTACTTATTTATTTTAATTA [XGTACX_site283],7.57 ± 0.3
18,ATAAGAAAAAGACACACACACAAAAAAAAAAAAAAA [CACACA_site2828],8.04 ± 0.47
19,AAAAAAAAAAAACACACACACAAATACAAATGGTAA [CACACA_site1720],7.92 ± 0.4

row,Sequence,gcPBM binding intensity (ln)
1,TTCAATAGGTATAATTGTACTTAATAATATATTGTT [XGTACX_site8363],7.53 ± 0.42
2,AAGTTATTGATATATACACACAAATATAAATAATAT [CACACA_site6695],7.63 ± 0.55
3,AATACATATCAAAGCTGTACAAAGTAAATTTTACTT [XGTACX_site3525],7.72 ± 0.69
4,TAATGGTTATCACTAACATGCAGTAATATTATATAG [TGCATGCA_site176],7.93 ± 0.75
5,ATATATATATGTATATGTACATATATATGGTAACTC [XGTACX_site681],8.93 ± 0.55
6,AAAAGAAAAAAAAAAAAAAAAAAAATTAAAATATAA [CACACA_negctrl_site17],7.07 ± 0.49
7,TTTTTTCTTTTTTTTTGTACATATAATATTTATGTT [XGTACX_site302],7.8 ± 0.5
8,TAAAATATTATTTATTTACACACCAATCTTCTTTTC [CACACA_site9320],7.65 ± 0.51
9,ATATAATATTTATATGCACACTTTTCTATATATAAG [CACACA_site6100],9.77 ± 0.15
10,TCGTATTTAAAATGTAGTACATAATTTGAAAAATAA [XGTACX_site5832],7.83 ± 0.028
11,TACAGATACAGATACACACACACACCGAAATAAATA [CACACA_site4865],7.84 ± 0.37
12,TAAATTCCTACATACGCATGTACATTAAAATTTTAA [TGCATGCA_site215],7.91 ± 0.59
13,AAAATAAAAAGAAAAAGAAAAAAGGGGGGGTAGGGG [CACACA_negctrl_site1048],9.135 ± 0.049
14,CTTTAAGTTATATGAAGTACAATTTAAAAAAATGAA [XGTACX_site358],7.88 ± 0.28
15,ATACATTCAATGAAATGTACGTTTATTTACAGAAGA [XGTACX_site2999],7.68 ± 0.45
16,AAATAAAAAACAGTGGCACACATTATGTATCCACCT [CACACA_site3756],8.03 ± 0.69
17,AAAAAAAAAATATACACACACATATAAATATAAATA [CACACA_site7574],7.54 ± 0.38
18,TTAAAGTAGAGAAAATGTACATTTTATTAACACAAT [XGTACX_site6369],7.94 ± 0.65
19,TTATGCCTTTAATATACACACTAATATTTTTTTGGC [CACACA_site5171],7.76 ± 0.46

row,Sequence,gcPBM binding intensity (ln)
1,TATATGAAGTACACAATACACACTAATTATATATAA [CACACA_site2608],8.155 ± 0.035
2,AACTATAAAAATTTTACACACTGTTTTTAAATAATG [CACACA_site5928],7.93 ± 0.62
3,AATTTTTTTTTTAGACGTACAAGAAAAAACAAAAAA [XGTACX_site4990],8.15 ± 0.55
4,GTAAAATGATATAAATGTACATAATATATATATGTC [XGTACX_site4049],7.74 ± 0.6
5,TGTGTATTTATAAATACACACCAAATGTTAATATAT [CACACA_site6904],8.03 ± 0.47
6,TGTCATATTATAAATTGTACAAATAGTATAATTATT [XGTACX_site581],7.78 ± 0.54
7,ATAAAAATATTATAAGCACACATATATATATATATA [CACACA_site8781],9.39 ± 0.57
8,AGTATACATATATATACACACATATATATATATATA [CACACA_site300],9.38 ± 0.59
9,ATTTTATCTTTAAACTGTACGTATTAATATGTAGAA [XGTACX_site3077],8.02 ± 0.26
10,AAATAATTTGTTGACACACACACACCCATACAGATA [CACACA_site5291],8.12 ± 0.33
11,TTTTGACCATATCTGTTGCACTTTTGTGCTATTCGA,9.49 ± 0.49
12,CATTATGTCGTAAATACACACATACATATACATACA [CACACA_site8383],7.93 ± 0.52
13,AAGGATCACAGACAAACACACATATATATATATATA [CACACA_site4469],9.33 ± 0.42
14,ATTAATTCGTTTTGTACACACATAATGAGTAATTTA [CACACA_site7118],7.82 ± 0.38
15,TAAATTTTTTCCTCCTGTACTTATTATATTTTTTTG [XGTACX_site1572],7.86 ± 0.61
16,TTTTTTTTTTTTTTTTGTACTCATATCTACTATCAT [XGTACX_site274],8.12 ± 0.77
17,ACAAGGTTTACGGGTAGTACAAATTTTTGAACATCT [XGTACX_site4739],7.59 ± 0.54
18,ATAAAAATTGATTATACACACGCGCCCAGACAACAA [CACACA_site5870],8.12 ± 0.49
19,ATATAGATGCATAATACACACATCAGATAATTAACC [CACACA_site6871],8.24 ± 0.45
